# The list shows a part of the results. The energies were worked out here from pooled read counts, against the library average; single values are noisy.
# Molecular target: T1, Pho4 (S. cerevisiae) (UniProt P07270)
# T1 sequence: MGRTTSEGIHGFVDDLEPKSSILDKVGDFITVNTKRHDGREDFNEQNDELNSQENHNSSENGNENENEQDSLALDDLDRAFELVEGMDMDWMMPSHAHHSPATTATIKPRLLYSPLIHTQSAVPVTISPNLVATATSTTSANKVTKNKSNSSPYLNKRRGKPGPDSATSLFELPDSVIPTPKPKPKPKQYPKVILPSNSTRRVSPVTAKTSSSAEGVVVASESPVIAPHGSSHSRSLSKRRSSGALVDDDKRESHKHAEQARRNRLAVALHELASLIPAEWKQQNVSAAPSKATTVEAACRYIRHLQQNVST
# Assay: relative binding free energy (BET-seq); higher = weaker binding
# Conditions: reference: library average
row,Sequence,relative binding free energy [kcal/mol]
1,ACTTTCACGTGGTGAG,0.08
2,GTTGACACGTGCTAGT,0.07
3,TTCAGCACGTGTTGGG,0.01
4,ACGGACACGTGGGGAG,-0.2
5,ATGTTCACGTGCTTCG,0.15
6,TATTTCACGTGTAAAA,0.27
7,CAAAGCACGTGAGGGG,0.16
8,TTGATCACGTGGTCTT,-0.05
9,TTTCTCACGTGTCTTA,0.27
10,GGTGACACGTGCTGTT,-0.06
11,ATTGCCACGTGTGGTG,-0.08
12,GAATTCACGTGATGGT,0.32
13,GTTGTCACGTGCTGGG,0.11
14,AAGGCCACGTGGGAGT,-0.26
15,TTATACACGTGTTGCG,0.09
16,TAAGGCACGTGTTGTA,-0.16
17,AGAGCCACGTGGGTGA,-0.06
18,TGTGGCACGTGTGTCC,-0.13
19,TGGGTCACGTGCGGCA,0.01
20,TGTTTCACGTGTTCTC,0.03
21,ATGTACACGTGGAGGC,0.01
22,CGGGTCACGTGAAAAG,0.31
23,CGAGGCACGTGGTATG,-0.08
24,AATGGCACGTGGTTTG,-0.11
25,CATGACACGTGGTGTT,-0.09

row,Sequence,relative binding free energy [kcal/mol]
1,GTTTGCACGTGCATGA,0.01
2,ATAGTCACGTGTTACG,0.07
3,TAGTGCACGTGGAGGG,0.01
4,TAGATCACGTGAAAGT,0.33
5,TTTGGCACGTGGAACG,-0.16
6,GTGGGCACGTGAGGTA,0.16
7,AGATGCACGTGGTGTG,-0.09
8,TTGTGCACGTGACGTA,0.08
9,TGCTGCACGTGGCTTG,-0.2
10,GGAGGCACGTGTCAGA,0.02
11,ATTAACACGTGGGGGA,-0.13
12,GGGGACACGTGTCAGT,-0.03
13,TTGTTCACGTGTGATT,0.36
14,GTGATCACGTGCGGGC,-0.03
15,AAGGACACGTGTAGGG,0.09
16,TAAATCACGTGGTAAT,0.18
17,TTAGTCACGTGCGGGT,0.08
18,TTTCTCACGTGATTGC,0.42
19,GATTGCACGTGGGGTA,-0.13
20,GGTATCACGTGCTGTT,0.17
21,CGGATCACGTGTGGGA,0.34
22,TTGTCCACGTGGTATA,0.09
23,TATGGCACGTGATCGA,-0.08
24,TGATTCACGTGGCCGG,0.1
25,TTAGTCACGTGAAATG,0.49

row,Sequence,relative binding free energy [kcal/mol]
1,GTATGCACGTGAAGGA,0.2
2,GGGTACACGTGTCATT,0.15
3,GTTTGCACGTGACGAT,0.23
4,TCTGTCACGTGTTGTT,0.06
5,GTTAACACGTGGTAAG,0.11
6,GGCTGCACGTGGTGGA,-0.11
7,GGCTGCACGTGTGTTA,0.09
8,GTTGGCACGTGGTACT,-0.12
9,GGTGACACGTGTTGGA,0.1
10,TTCGTCACGTGATATA,0.19
11,AGCGTCACGTGTGTAG,-0.01
12,TAAGACACGTGAGAGT,0.32
13,GCAATCACGTGGGATG,0.08
14,GGAGGCACGTGTAAGC,0.02
15,GGGGGCACGTGTTTGA,0.05
16,CGGTGCACGTGTGTAT,-0.06
17,GTAGGCACGTGTGGAG,-0.01
18,GGGTCCACGTGCAGGG,0.12
19,GTTTGCACGTGAGGGG,0.25
20,ATTGACACGTGATGGC,0.23
21,GAAGACACGTGGGTTG,-0.05
22,ATTTGCACGTGTTTAG,0.01
23,TGTAGCACGTGGTAAG,-0.06

# From the BET-seq Pho4 binding data (Le et al. 2018)
